In the RNAGym collection of RNA variant scans (doi:10.7554/elife.90254):
Read counts are not given, so values of variants with three or more changes are uncertain.

B1: LINE1-mini (parent)
chain: GGCAGAGCUCAACACAGCGUGGCAAAGUGGCUGUGGCUAGACUGCC

Variants of: B1
Test: self-cleavage, relative activity (ratio to wild type); higher = more cleavage; in vitro, sequencing; the parent is a self-cleaving ribozyme

| Variant | self-cleavage |
| --- | --- |
| GGGAUAGAUCAACACAGCGUGUCAAAGUGGCUGUGGCUAGACUGCU [C3G G5U C8A G22U C46U] | 0.15 |
| GGGAUAGGUCAACAAAGCGUGGCAGAGUGGCUGUGGCUAGACUGCC [C3G G5U C8G C15A A25G] | 0.02 |
| GGGAUAGCUCAAUACAGCGUGGCAAAGUGGCUGUUGCUAGACUUCC [C3G G5U C13U G35U G44U] | 0.26 |
| GGGAUAGCUCAACAUAGCGUGGCAGAUUGGCUGUGGCUAGACUGCC [C3G G5U C15U A25G G27U] | 0.02 |
| GGGAUAGCUCAACACAGAGUGGCAAAGUGGCCGUGGCUAGACUGCC [C3G G5U C18A U32C] | 0.02 |
| GGGAUAUCUCAACACAGCGUGGCAACGUGGCUGUGGCUAGACUGCC [C3G G5U G7U A26C] | 0.16 |
| GGGAUAGCUCAACACAGCGUGGCAAAGUUUCUAUGGCUAGUCUGCC [C3G G5U G29U G30U G33A A41U] | 0.45 |
| GGGAUAGCUCAACACAGCGUGGCAAAGUGGCUGUGUCUUGACCGCC [C3G G5U G36U A39U U43C] | 0.05 |
| GGGAUAGCGCAACACAGCGUGGCAAAGUGGCUGUGGCUAGCCUGCC [C3G G5U U9G A41C] | 0.03 |
| GGGAUAGCUCAACACAGCGAGGCAAAGUGGCUGUGGCUAGACUUCC [C3G G5U U20A G44U] | 0.04 |
| GGGAGAACUCAGCGCAGAGUGGCAGAGUGGCUGUGGCUAGACUCCC [C3G G7A A12G A14G C18A A25G G44C] | 0.01 |
| GGGAGAAUUCAACACAGCGUGGCAAAGUGGCUGUGGCUAGACUGCC [C3G G7A C8U] | 0.43 |
| GGGAGAACUAAACAAAGCGUGGCAGAGUGGCUGUGGCUAGACUGCC [C3G G7A C10A C15A A25G] | 0.03 |
| GGGAGAACUCAAGAGAGCGUGGCGCGAUGGCUUUGGCUAGACUGCC [C3G G7A C13G C15G A24G A25C A26G G27A G33U] | 0.19 |
| GGGAGAACUCAACACAGUGUGGCAAAGUGGCUGUGGCUAGACUGCC [C3G G7A C18U] | 1.42 |
| GGGAGAACUCAACACAGCGUGGUAAAGUGGCUGUGGCUAGACUGCC [C3G G7A C23U] | 0.06 |
| GGGAGAACUCAACACAGCGUGGCAAAGUGGCUGUGGCUAGACUGUC [C3G G7A C45U] | 0.24 |
| GGGAGAACUCAACACAGCGUGUCAAAGUGACUAUGGCUAGACUGCC [C3G G7A G22U G30A G33A] | 0.17 |
| GGGAGAACUCAACACAGCGUGGCAAAGUUGCUGUGGCUAGACUGCC [C3G G7A G29U] | 0.6 |

| Variant | self-cleavage |
| --- | --- |
| GGGAGAACUCAACACAGCGUGGCAAAGUGGCUGUGGCUAGACUUCC [C3G G7A G44U] | 0.07 |
| GGGAGACGUCAACACAGCGUGGAAAAGUGGCUGUGGCUAGACUGCC [C3G G7C C8G C23A] | 0.09 |
| GGGAGACUUCAACACAGCGUGGCAAAGUGGCUGUGGCUAGACUUCG [C3G G7C C8U G44U C46G] | 0.08 |
| GGGAGACCUGAAUACAGCGUGGCAAAGUGACUGUGGCUAGACUGUC [C3G G7C C10G C13U G30A C45U] | 0.03 |
| GGGAGACCUUACCACAGCGUGGCAAAGUAGCUGUGGCUAGACUGCC [C3G G7C C10U A12C G29A] | 0.02 |
| GGGAGACCUCAAUACAGCGGGGCAAAGUGGCUGUGGCUAGAUUGCC [C3G G7C C13U U20G C42U] | 0.02 |
| GGGAGACCUCAACACAGCGUGGCAAAGUGGAUGUGGCUAGAAUGCC [C3G G7C C31A C42A] | 0.01 |
| GGGAGACCUCAACACAUCGUGGCAAAGUGGCUGUGGCUAGACUGCC [C3G G7C G17U] | 0.02 |
| GGGAGACCUCAACACAGCGUGGCAAAGUGGCUAUGGCUAGACUGCC [C3G G7C G33A] | 0.01 |
| GGGAGACCUCAACACAGCGUGGCAAAGUGGCUCUGGCUAGACUGCC [C3G G7C G33C] | 0.01 |
| GGGAGACCUCAACACAGCGAGGCAAAGUGGCUGUUGCUAGACUGCC [C3G G7C U20A G35U] | 0 |
| GGGAGACCUCAACACAGCGUGGCAAAGUGGCCGUGGCUAGACUGCC [C3G G7C U32C] | 0.23 |
| GGGAGACCUCAACACAGCGUGGCAAAGUGGCUGUGGCUAGACAGAC [C3G G7C U43A C45A] | 0.01 |
| GGGAGACCUCAACACAGCGUGGCAAAGUGGCUGUGGCUAGACCGCG [C3G G7C U43C C46G] | 0.04 |
| GGGAGAUCUCAGCACAGCGUGGCAAAGUGGCUGUAGCUAGACUGCC [C3G G7U A12G G35A] | 0.08 |
| GGGAGAUCUCAACACGGCGUGACAAAGUGGCUGUGGCUAGACUGCC [C3G G7U A16G G22A] | 0.05 |
| GGGAGAUCUCAACACAGCGUGGCAAUGUGGCUGUGGCUAGACUGCC [C3G G7U A26U] | 0.02 |
| GGGAGAUCUGAACACAGCGCGGCAAACUGGCUGUGGCUAGACUGCC [C3G G7U C10G U20C G27C] | 0.02 |
| GGGAGAUCUCAACACAGCGUGGGAAGGUGGCAGUGGCUAGACUGCC [C3G G7U C23G A26G U32A] | 0.07 |

| Variant | self-cleavage |
| --- | --- |
| GGGAGAUCUCAACACAGCGUGGCAAAGUUGCUGUGGCUAGACUGCC [C3G G7U G29U] | 0.48 |
| GGGAGAUCUCAACACAGCGUGGCAAAGUGGCUGUUGCUAGACUGCC [C3G G7U G35U] | 0.08 |
| GGGAGAGCUCAACACAAUAUGGCAAAGUGGAUGUGGCUACACUGCC [C3G G17A C18U G19A C31A G40C] | 0.02 |
| GGGAGAGCUCAACACAACGUGGAAAAGUGGCUGAGGGUAGACUGCC [C3G G17A C23A U34A C37G] | 0.02 |
| GGGAGAGCUCAACACAACGUGGUAAAGUGGCUGUGGCUAGACUACC [C3G G17A C23U G44A] | 0.22 |
| GGGAGAGCUCAACACAACGUGGCAAAGUGGCUGUGGCUAGACUGCA [C3G G17A C46A] | 0.21 |
| GGGAGAGCUCAACACAACAUGGCAGACUGGCUGUCGACAGACUGCC [C3G G17A G19A A25G G27C G35C C37A U38C] | 0.04 |
| GGGAGAGCUCAACACAACGUGGCAAAGUAGCUGUGGCUAGACUGCC [C3G G17A G29A] | 0.13 |
| GGGAGAGCUCAACACAACGUGGCAAAGUUGCUGAGGAUAGACUGCC [C3G G17A G29U U34A C37A] | 0.06 |
| GGGAGAGCUCAACACAACGUGGCAAAGUGACUGUCGCUAAACUGCC [C3G G17A G30A G35C G40A] | 0.52 |
| GGGAGAGCUCAACACAACGUGGCAAAGUGUCUGUGGCUAGACUGCC [C3G G17A G30U] | 0.6 |
| GGGAGAGCUCAACACAACGUGGCAAAGUGGCUUAGGCUAGACUGGU [C3G G17A G33U U34A C45G C46U] | 0.04 |
| GGGAGAGCUCAACACAACGUGGCAAAGGGCCUGUGGCUAGACCGCC [C3G G17A U28G G30C U43C] | 0.09 |
| GGGAGAGCUCAACACACCGUGGCAAAGUGGCUGUGGCUAGACUGCG [C3G G17C C46G] | 0.2 |
| GGGAGAGCUCAACACACCAUGGCAAAGUGGCUGUCCCUAGACUGCC [C3G G17C G19A G35C G36C] | 0.03 |
| GGGAGAGCUCAACACACCGUGGCAAAGUGGCUUUGGCCAGACUGGU [C3G G17C G33U U38C C45G C46U] | 0.06 |
| GGGAGAGCUCAACACACCGUGGCAAAGUGGCUGUGGCUACAAUGCC [C3G G17C G40C C42A] | 0.1 |
| GGGAGAGCUCAACACAUCGUGGCUAAGUGGCUGUGGCUAGACUGCC [C3G G17U A24U] | 0.18 |
